We go through 44 sequences from the supplement of paper PMC11417369.

The other results are listed elsewhere or left out.

In this experiment the test system is PfHDP1 homeodomain (GST-tagged). Kind of experiment: gcPBM binding intensity (ln(normalized median fluorescence intensity)); higher = stronger DNA binding. The method, boiled down:
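For binding intensity, the highest Masliner-normalised natural-log median intensity across replicate spots of either probe orientation was taken. Protein bound to the array was stained with Alexa488 anti-GST antibody and scanned at 488 nm. The protein, GST-tagged P. falciparum DNA-binding domains from E. coli at about 25 μg on average, had been applied for 1 h to an Agilent 4 × 180k array of primer-extended double-stranded 36-bp intergenic genomic probes and negative controls.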
With “TACATAATAACATGTACACACATTCTTCTATAAATG [CACACA_site4061]”, the “gcPBM binding intensity (ln)” value worked out at 6.64.
In the case of “ACATAATAAAAATGACGTACAATTTTTTTTTTTCAT [XGTACX_site8340]”, the “gcPBM binding intensity (ln)” value was 6.2.
Then “CATTAAAAAGAAAGTTCACACACATATATATGACGG [CACACA_site8836]”, with 6.91; and “ACTACATAATATTAACGTACATATTATAATACTTGC [XGTACX_site954]”, with 6.77; and “ATATAACACATTAGTTGTACTATTTTTAATTGGTGA [XGTACX_site961]”, with 6.4.
On to “TATATATATATGTGCACACCAATTGTATGTAATATA [CACACA_site3889]”, for which the “gcPBM binding intensity (ln)” value was found to be 10.6.
Next, “TATTTAATTACATGAACACACATTATATATTTTTAA [CACACA_site5615]”: 6.35; “TTTATATTATTAGAAACACACATTAGATTAAAATTA [CACACA_site3286]”: 6.21; “TTCAAATTTCCACATACACACCTTGTAGATCTATAT [CACACA_site6270]”: 6.93.
Next, “CAATGTTGTACATACACACACACAAAAAAAAAATAA [CACACA_site2407]”: 6.75; “ATAAAAAAACACACTCGTACACACATATTTTCTTTC [XGTACX_site6565]”: 6.82; “GATAATAATAAACAACCACACACAAAAAAACAAAAA [CACACA_site9074]”: 7.01.
On to “TGCTATAATTTATATACACACAAATATATACACATA [CACACA_site9356]”, for which the “gcPBM binding intensity (ln)” value was found to be 6.83.
Next, TTACAATAAATTATAGTGCAATATTTTATTTAATAT: 10.6; “TAGCCCATATGGAATACACACTGAAAATAAAAAAAG [CACACA_site5799]”: 6.67; “AAAAAAAAAAAAAAAAAAAAAAAAAAAAAAACATAT [GTGCAC_negctrl_site580]”: 7.44.
Consider “ATGAATAATTAATGATGTACTTAAAAAAAAAAATAT [XGTACX_site6346]”, for which the “gcPBM binding intensity (ln)” value was determined as 6.41.
For “ATATATTATATTGAATGTACATATATATATTATATA [XGTACX_site8445]”, the “gcPBM binding intensity (ln)” value came out at 6.58.
Then “GTTAATATCTTGAACAGTACTCTAAATATCTACATA [XGTACX_site5358]”, with 6.17; and “ATAATATAATTTTGCAGTACCCAAAAAACAAAATAA [XGTACX_site4827]”, with 7.09; and “AAAGTATAATAATACACACACTTTAAAAGTTAAATG [CACACA_site7550]”, with 6.57.
As for “AATATGATATATATATGTACATATATATAATATAAT [XGTACX_site3072]”, the “gcPBM binding intensity (ln)” value was 6.67.
Then “ATATAGGTAAAAAGTATACACACGTTGACACATTCT [CACACA_site1199]”, with 6.42; and “GCACATTTTTTTATCACACATATAATTACAATATAA [CACACA_site5585]”, with 6.95.
Next, “TACGTATGCCTGTGATGTACATATATATATACATAC [XGTACX_site4728]”: 7.04.
Next, “TTTCGGTTTTTTTTTATTTTTTTTTTTTTATTATTT [CACACA_negctrl_site335]”: 6.31; “AAAAGATGCGCATACACACAGATGAATAACAAAAAA [CACACA_site6865]”: 8.07.
“TGACTATGTATATTTAGTACATAAAATCAATAATAT [XGTACX_site4082]”: the “gcPBM binding intensity (ln)” value amounted to 6.32.
On to “AAGGGTTGCCTGTGTAGTACATATATATATATATAT [XGTACX_site8555]”, for which the “gcPBM binding intensity (ln)” value was found to be 9.24.
Then AGGGAAAAAAAAAAAGTGCATTTGTATTAAATGAAT, with 8.15; and “AAATATAAGAAAAAGGTGCTTTTTTTTTTTTTTTTT [GTGCAC_site9700]”, with 6.57.
With “GTAAACAAAATATTTTGTACATATTTTATATTATTT [XGTACX_site7837]”, the “gcPBM binding intensity (ln)” value came to 6.33.
Next, “TCATTCATAAAAATAACACACAAAAAAAAAAAAAAA [CACACA_site1800]”: 6.3.
For “AAATTATATTATTGAACACACGTTTGGTAATGTTTT [CACACA_site5469]”, the “gcPBM binding intensity (ln)” value stood at 6.
Then “GGACATTTTTATAAGGTGCACGGTTTTGATATTACT [GTGCAC_site9892]”, with 10.3; and “ATAATGATATATAGTACACACAAAAATGGAAGTAAA [CACACA_site7541]”, with 7.04; and “AACCACATACATATAACACACATATACAATATATAT [CACACA_site8607]”, with 6.68.
Then “TCATTATATCATGGTAGTACTCATTAATAATACGTA [XGTACX_site8701]”, with 6.48.
Then “GTTAATAAAAATATATGTACATAATTATTATGAAAA [XGTACX_site3030]”, with 6.67; and “AATATTATTTAGGAGCGTACGTTTTATTTACATATT [XGTACX_site5188]”, with 6.81; and “TATATATTTTTTAAACCACACACAATATAGAGTATA [CACACA_site8106]”, with 6.79.
As for “TTTTTTTTTTTAAAAAGTACACAATTAATTAATATA [XGTACX_site8494]”, the “gcPBM binding intensity (ln)” value stood at 6.41.
Next, “ATATTGTTTTATATAGAACACACATAAAAATATATA [CACACA_site8314]”: 6.53; “GGCATAAATATATGCACACACAAAAAAAAAAAAAAA [CACACA_site59]”: 9.94.
